# Reference: PubChem BioAssay (NCATS)
# This list was built around the results that the source calls inconclusive (neither active nor inactive); the mix of calls is not that of the screen. A potency beside an inconclusive call is a rough fit, not a confirmed value. Activity calls are given as the source filed them. The call rests on the fitted dose curve; in most records, active means well fitted cell-killing curve with a large enough effect; inconclusive means small, poorly fitted or top-dose-only effect, or effect the other way; inactive means no such curve, though single readings can be large or run the other way.
# Assay: Viability qHTS for spleen associated tyrosine kinase inhibitor (SYKi) naive MV4-11 cells (AID 1963823); further: nearly all actives have a fitted effect of over 40% in size
# Settings: MV4-11 AML viability, CellTiter-Glo luminescence, 72 h; viability (% of control): at 45 µM (top of the series)
# How it was run: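 Seeding of 500 SYKi-naive MV4-11 cells per well onto pre-dispensed compounds preceded a 72 hr incubation at 37 C. Luminescent CellTiter-Glo signal, read after 10 min at room temperature, reflected viable cells.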
# Potency means the concentration at half of the fitted maximal effect; tags describe the fitted curve by direction and shape.
Structure (SMILES),Potency,viability (% of control)
CC1=C(/C=C/C(C)=C\C=C\C(C)=C/C(=O)O)C(C)(C)CCC1,"inconclusive: 2.31 µM [cytotoxic, partial curve]",
OC[C@H]1O[C@@H](Oc2cc(O)cc(-c3cc4ccc(O)cc4o3)c2)[C@H](O)[C@@H](O)[C@@H]1O,"inconclusive: 14.2 µM [cytotoxic, single point]",
C[C@@H]1O[C@@H](O[C@@H]2CO[C@@H](O[C@H]3CC[C@@]4(C)C(CC[C@]5(C)C4CC=C4[C@@H]6CC(C)(C)CC[C@]6(C(=O)O[C@@H]6O[C@H](CO)[C@@H](O)[C@H](O)[C@H]6O)CC[C@]45C)[C@]3(C)CO)[C@H](O)[C@H]2O[C@@H]2O[C@H](CO)[C@@H](O)[C@H](O)[C@H]2O)[C@H](O)[C@H](O)[C@H]1O (stereo partly drawn),,inactive: 57.4% [at 9.25 µM]
CC12CCC3c4ccc(O)cc4CCC3C1CCC2OC1OC(C(=O)O)C(O)C(O)C1O (stereo not drawn),,inactive: 72.8%
Cc1ccc(Cl)cc1NC(=O)c1nc[nH]c1C(=O)Nc1nc2ccccc2[nH]1,"inconclusive: 13 µM [cytotoxic, partial curve]",
CC(C)CC(=O)OC[C@@]1(O)C[C@@]23CC[C@H]4[C@@](C)(CCC[C@@]4(C)C(=O)O)[C@@H]2CC[C@@H]1C3,"inconclusive: 0.0632 µM [cytotoxic, full curve, poor fit]",
OC[C@H]1O[C@@H](Oc2ccc(O)cc2)[C@H](O)[C@@H](O)[C@@H]1O,"inconclusive: 0.0237 µM [rising, full curve, poor fit]",
C[C@]1(C(=O)N(CCCC(=O)O)Cc2cccc(Cl)c2)CCN1C(=O)c1csc2ccccc12,"inconclusive: 20.9 µM [cytotoxic, single point]",
